Measured values: paper PMC12136788
The list shows a part of the results.

B1: chr2:135782819:135782876:+|CDS|ENSG00000144224|msi1_unk|total|mutant (ssRNA)
RNA: GGGAGUUCUACAGUCCGACGAUCGUGAGAAAAAGAGUGCUGGAAAAACGUGGAGACGACUUUAAAAAGGAGGGGAAAAUUUACCGAUUAAGGACUCAAGAUGAUGGUGAAGAUGAAAACAACACUUGGAAUGGAAAUUCCACUCAACAGAGGAUUGAGCAUCA
B2: chr14:22589090:22589186:-|5pUTR_CDS|ENSG00000129562|msi1_unk|FALSE|overlapping (ssRNA)
RNA: GGGAGUUCUACAGUCCGACGAUCUCCUCCAAGAGUUUGGGGCGCGGACCGGAGUACCUUGCGUGCAGUUAUGUCGGCGUCGGUAGUGUCUGUCAUUUCGCGGUUCUUAGAAGAGUACUUGAGCUCCACUCCGCAGCGUCUGAACAACAGAGGAUUGAGCAUCA
B3: chr1:153626309:153626462:-|CDS|ENSG00000189171|unk|FALSE|unique (ssRNA)
RNA: GGGAGUUCUACAGUCCGACGAUCUCCAUUGAGACCGUGGUCACCACCUUCUUCACCUUUGCAAGGCAGGAGGGCCGGAAGGAUAGCCUCAGCGUCAACGAGUUCAAAGAGCUGGUUACCCAGCAGUUGCCCCAUCUGCUCAAGCAACAGAGGAUUGAGCAUCA
B4: chr13:36848462:36848578:-|3pUTR|ENSG00000120693|unk|total|mutant (ssRNA)
RNA: GGGAGUUCUACAGUCCGACGAUCAAAUACACCGAAUGUAUACUGUUCUUAUUUUUUUUAAUCACCGUUUGUUUUGUGCUUUCCCGUUAACCUGAUGCCAGUACAGUGCAAUUGGAAAAGCAGGACUUUGGUGCCUGUGCUAUACAACAGAGGAUUGAGCAUCA
B5: chr2:181535040:181538244:-|three_prime_utr|ENSG00000188452|control|control|control (ssRNA)
RNA: GGGAGUUCUACAGUCCGACGAUCAGCAUGGAAGAAAUGAUUCCAAAGUAACAUGUAAUUGUUUCUAAAAGAAAUGUACAAACUAGAAUUUUAAUAUAAAGAAAUGUGGCCAUGCUUUAAACCUGUGGUCCCCACCCUUUUUGGCAACAGAGGAUUGAGCAUCA
B6: chr17:29166540:29166641:-|CDS|ENSG00000196535|unk|total|mutant (ssRNA)
RNA: GGGAGUUCUACAGUCCGACGAUCCUGGACUCGGGCCACCUAAGUACAGCCAGCUCCAGCGAUGACCUCAAGGGUGAGGAGGGCCGCUUCCGUGGCUCGGUGCUGCAGCGGGCAGCCAAGUUCGGCUCACUGGCCAAGCAGAACCAACAGAGGAUUGAGCAUCA
B7: chr10:22535117:22535218:-|3pUTR|ENSG00000150867|unk|FALSE|unique (ssRNA)
RNA: GGGAGUUCUACAGUCCGACGAUCAAGGUACACAUACAUUAUUUGAGUAACUGUUUCCUUGGGGGCCAAUCUGUGUAUGCUUUUAGAAGUUUACAGAAUGCUUUUAUUUUUGUCUAUAACAAACAGUCUGUCAUUUAUUUCUGUCAACAGAGGAUUGAGCAUCA
B8: chr13:110149562:110149758:-|3pUTR|ENSG00000187498|msi1|total|mutant (ssRNA)
RNA: GGGAGUUCUACAGUCCGACGAUCUAAAUAUAUAUAUAUAUCCGUAAUUUAUACCGAUGUCAGCAAUCCGGCAGAUCAAGGUUCCGUUUAACUUCCACUGUUAAAAUAAAGCUUACACCGUUUUCUUCCUUUGAAAGACUGUGCCAACAGAGGAUUGAGCAUCA
B9: ENSG00000135862:stop:overlap|stop_codon|ENSG00000135862|stop_codon|NA|stop_codon (ssRNA)
RNA: GGGAGUUCUACAGUCCGACGAUCAGGACAUCAGGAAGACCUUACCAUCUGGCUGCUUCAACACCCCGUCCAUUGAAAAGCCCUAGUGUCUUUAGGGCUGGAAGGCAGCAUCCCUCUGACAGGGGGGCAGUUGUGAGGCCACAGCAACAGAGGAUUGAGCAUCA
B10: chr8:97851660:97851768:+|3pUTR|ENSG00000104341|msi1_unk|FALSE|overlapping (ssRNA)
RNA: GGGAGUUCUACAGUCCGACGAUCAUUAACUGUAGAAUUCUUCCUGUACGAUUGGGGAUAUAAUGGGCUUCACUAACCUUCCCUAGGCAUUGAAACUUCCCCCAAAUCUGAUGGACCUAGAAGUCUGCUUUUGUACCUGCUGGGCAACAGAGGAUUGAGCAUCA
B11: chr3:196782704:196782805:+|CDS|ENSG00000180370|unk|total|mutant (ssRNA)
RNA: GGGAGUUCUACAGUCCGACGAUCAACGGAGAACUGGAAGAUAAGCCUCCAGCACCUCCUGUGCGAAUGAGCAGCACCAUCUUCCGCACUGGAGGCAAAGACCCUUUGUCAGCCAAUCACAGUUUGAAACCUUUGCCCUCUGUUCAACAGAGGAUUGAGCAUCA
B12: chr2:128193554:128193655:+|3pUTR|ENSG00000136731|msi1|FALSE|unique (ssRNA)
RNA: GGGAGUUCUACAGUCCGACGAUCCCUUGUCAAGGCUCUGCCUGAAUGAGUUUUCAUCUGAUUGUGGGGACCAAGUCCCUGAGUAGAGGGCCAAGAGCUAGGGACAGGGGGAAGAGACUGGCCCAGGUGGUAGGGAGGAAAGAACAACAGAGGAUUGAGCAUCA
B13: chr3:89481969:89482070:+|3pUTR|ENSG00000044524|msi1|total|mutant (ssRNA)
RNA: GGGAGUUCUACAGUCCGACGAUCAUAUGUGUUUACUUUAAACUUGUCUUUUCAAAAUAUUACUCAGUUUAUGUUGUACAAUGCCGAUGGCCUCUUACUAAUGUAAAAUGAUUUGCCGUGGAAACAUUUAUAUUUUUAUAAUAACAACAGAGGAUUGAGCAUCA
B14: chr14:22612100:22612201:+|3pUTR|ENSG00000100439|msi1|FALSE|unique (ssRNA)
RNA: GGGAGUUCUACAGUCCGACGAUCCCACCCCUGACCCAUCUGUCAGCUUUUUCCCAGGGAGCCGUUUCAGGGGUUCUGGGCAGUAGGCUGGGCCUGGCCUCAGAACCUGGUGGCUCCUGCCUGCUCCUUCACUUUUGUAAAACCCAACAGAGGAUUGAGCAUCA
B15: chr8:23842113:23842214:-|3pUTR|ENSG00000159167|msi1|FALSE|unique (ssRNA)
RNA: GGGAGUUCUACAGUCCGACGAUCACUUUAGACAUUUUUGUGCCAUUAUAUUUGCAUUAUGUAUUUAUAAUUUAAAUGAUAUUUAGGUUUUUGGCUGAGUACUGGAAUAAACAGUGAGCAUAUCUGGUAUAUGUCAUUAUUUAUCAACAGAGGAUUGAGCAUCA
B16: ENSG00000070961:be:win_1|CDS|ENSG00000070961|bound_else_gene|NA|bound_elsewhere_windowed (ssRNA)
RNA: GGGAGUUCUACAGUCCGACGAUCAUGGGCGACAUGGCAAACAACUCAGUUGCUUACAGUGGUGUGAAAAACUCUUUGAAGGAAGCUAAUCAUGAUGGAGACUUUGGAAUUACGCUCGCAGAGCUGCGGGCUCUCAUGGAGCUCCAACAGAGGAUUGAGCAUCA
B17: chr11:95131931:95132033:+|3pUTR|ENSG00000149218|unk|FALSE|bound_elsewhere (ssRNA)
RNA: GGGAGUUCUACAGUCCGACGAUCGGAUAGGUGGCUGAGACCCACUGCCCUGAGCUACUAGUGUGGCUGUGCCUGUGGGUCUCUAGAACCAUCUGCAUUGGACGUGAAGCCACAGCAGGUGGCUGGACUGCUGGCCUGUUCCUACAACAGAGGAUUGAGCAUCA
B18: chr4:2944067:2944171:-|CDS|ENSG00000087269|unk|total|mutant (ssRNA)
RNA: GGGAGUUCUACAGUCCGACGAUCGGCUUUGUCCCAGAGGUUUAUACCUGAGCUUAUUAAUUUUCUUCUUGGGAUUCUUUACACCGCAACUCCAAACAAAGCAAGCCAAGGUGAGUUGAUUUGAGGGAGGUUCCUACAAAUAUGCAACAGAGGAUUGAGCAUCA
B19: chr2:1632407:1632508:-|3pUTR|ENSG00000130508|msi1|total|mutant (ssRNA)
RNA: GGGAGUUCUACAGUCCGACGAUCUUGGUAAGUGAUUGAUAAAAAUUGGUUGGUGUUUCAUGACAUGUGGACUUCUUUUGAAACCGCAAGUCAAAUGCCGUGACCAAAUUGUGGAAGAGAUUUCUGUCAAACCGGAAAUGUGUACAACAGAGGAUUGAGCAUCA
B20: chr6:73641827:73641929:-|CDS|ENSG00000119899|unk|total|mutant (ssRNA)
RNA: GGGAGUUCUACAGUCCGACGAUCGAGAAAAGAGCUGCUCUGUGAAGGUCUUAAAGGAUUGUUUUAUUCUUUUCUGAUUUUUGCCGGGUAAGAAGUACCAAUGGGAUGCAGAAACUCAAGGAUGGAUUCUCGGUUCCUUUUUUUCAACAGAGGAUUGAGCAUCA
B21: chrX:119453419:119453520:+|3pUTR|ENSG00000077713|unk|total|mutant (ssRNA)
RNA: GGGAGUUCUACAGUCCGACGAUCCAGGUAAUUGAAGUGGCUGAGUGGAUACCACGUUGUGAGGUCAGCCACUGGGUCACUUGCCGUCAAUGCAAAGCUUGCACAAACCAACGUCAGCCCCGUUUCACUCAGUUUGACCUGAGACAACAGAGGAUUGAGCAUCA
B22: chr7:149003559:149003660:-|3pUTR|ENSG00000155660|msi1|FALSE|unique (ssRNA)
RNA: GGGAGUUCUACAGUCCGACGAUCUUUUAUACUUUGGUGUUUCACUUCAUGCUCUGAAUACUGAAUAACCAUGAAUGACUGAAUAGUUUAGUCCAGAUUUUUACAGAGGAUACAUCUAUUUUUAUCAUUAUUUGGGGUUUGAAACAACAGAGGAUUGAGCAUCA

molecular target: MSI1 full-length (mouse, UniProt Q61474 1-362); test: nsRBNS (natural sequence RNA bind-n-seq); RBNS binding buffer (assumed for nsRBNS): 25 mM Tris pH 7.5, 150 mM KCl, 3 mM MgCl2, 0.01% Triton X-100, 500 ug/ml BSA, 20 U/ml SUPERase-In, 4 C; UNK is unkempt and MSI1 is Musashi-1; names of the RNAs are library labels; protein concentration not given here; high values mean tight binding
UniProt Q61474, sequence (Q61474 whole entry): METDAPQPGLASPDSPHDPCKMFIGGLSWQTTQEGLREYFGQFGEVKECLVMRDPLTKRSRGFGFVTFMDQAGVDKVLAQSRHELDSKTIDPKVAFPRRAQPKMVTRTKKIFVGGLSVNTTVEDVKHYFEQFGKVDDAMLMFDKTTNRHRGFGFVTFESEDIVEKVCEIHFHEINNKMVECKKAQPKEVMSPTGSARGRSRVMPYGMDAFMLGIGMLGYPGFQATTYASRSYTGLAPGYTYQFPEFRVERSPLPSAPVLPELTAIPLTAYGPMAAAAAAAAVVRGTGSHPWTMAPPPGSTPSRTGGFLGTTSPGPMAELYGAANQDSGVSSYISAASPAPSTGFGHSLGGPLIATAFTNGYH

| Binder | binding signal [enrichment R] |
| --- | --- |
| B1 | 0.521 |
| B2 | 0.704 |
| B3 | 0.348 |
| B4 | 1.44 |
| B5 | 4.05 |
| B6 | 0.486 |
| B7 | 0.778 |
| B8 | 2.59 |
| B9 | 0.431 |
| B10 | 0.651 |
| B11 | 0.36 |
| B12 | 0.555 |
| B13 | 0.91 |
| B14 | 1.41 |
| B15 | 2.66 |
| B16 | 0.34 |
| B17 | 0.403 |
| B18 | 0.592 |
| B19 | 0.154 |
| B20 | 0.269 |
| B21 | 0.294 |
| B22 | 3.45 |
